In article PMC4336329 (PLoS ONE, 2015):
In all, about 310,000 compounds went through this assay and about 2,200 (0.71%) showed an effect of 50% or more. The effect is printed as a negative number. The list shows a part of the results.

What follows are molecules tested against human ether-à-go-go-related gene (hERG) potassium channel (human, UniProt Q12809) (assay: primary screen, population patch clamp on CHO cells stably expressing hERG).
Sequence of human ether-à-go-go-related gene (hERG) potassium channel (Q12809 whole entry, looked up): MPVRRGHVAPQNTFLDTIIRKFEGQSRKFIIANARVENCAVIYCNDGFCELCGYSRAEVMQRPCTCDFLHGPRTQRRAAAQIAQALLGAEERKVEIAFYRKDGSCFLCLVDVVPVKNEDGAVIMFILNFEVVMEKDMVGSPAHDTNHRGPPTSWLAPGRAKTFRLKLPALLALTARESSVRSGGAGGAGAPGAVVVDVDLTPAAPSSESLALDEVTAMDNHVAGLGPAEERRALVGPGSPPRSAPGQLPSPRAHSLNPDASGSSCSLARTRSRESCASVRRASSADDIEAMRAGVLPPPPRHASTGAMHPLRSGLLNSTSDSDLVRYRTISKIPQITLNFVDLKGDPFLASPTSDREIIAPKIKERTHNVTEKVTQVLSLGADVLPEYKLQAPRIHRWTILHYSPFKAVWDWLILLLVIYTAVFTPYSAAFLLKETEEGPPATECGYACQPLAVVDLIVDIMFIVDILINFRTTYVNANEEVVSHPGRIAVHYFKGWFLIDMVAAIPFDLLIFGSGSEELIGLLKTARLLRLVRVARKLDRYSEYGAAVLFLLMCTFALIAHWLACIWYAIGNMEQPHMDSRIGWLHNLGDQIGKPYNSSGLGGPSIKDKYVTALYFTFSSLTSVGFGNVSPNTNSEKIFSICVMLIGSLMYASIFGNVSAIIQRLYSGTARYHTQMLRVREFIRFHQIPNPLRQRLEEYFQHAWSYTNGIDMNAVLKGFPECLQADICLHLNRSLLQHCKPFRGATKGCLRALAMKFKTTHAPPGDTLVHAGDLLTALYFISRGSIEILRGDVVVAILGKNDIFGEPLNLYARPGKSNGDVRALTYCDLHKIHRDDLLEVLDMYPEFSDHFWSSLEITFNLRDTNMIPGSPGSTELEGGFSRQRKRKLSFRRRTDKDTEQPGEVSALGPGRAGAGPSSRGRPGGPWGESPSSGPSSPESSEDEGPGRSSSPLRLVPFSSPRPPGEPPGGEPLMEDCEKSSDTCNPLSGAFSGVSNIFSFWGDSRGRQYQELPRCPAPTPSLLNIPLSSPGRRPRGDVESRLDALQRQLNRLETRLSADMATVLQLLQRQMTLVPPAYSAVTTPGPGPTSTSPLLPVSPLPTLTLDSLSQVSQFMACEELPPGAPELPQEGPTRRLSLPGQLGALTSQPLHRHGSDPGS

SMILES | hERG current change (%, negative = inhibition) at 1uM
O=C(COc1coc(CN2CCc3ccccc32)cc1=O)N1CCCCC1 | 3.29%
CCn1c(=Nc2ccc(N3CCOCC3)cc2)ccc2ccccc21 | -25.2%
Fc1ccc(CSc2nnc(Cc3sc(-c4ccccc4)nc3-c3ccccc3)o2)cc1 | 13.9%
Cn1cc(CCC(=O)NCc2ccc(Cl)cc2)c2ccccc21 | 14.1%
Cc1ccc(-n2ncc(C(=O)NC3CC3)c2C2CCN(C(=O)OC(C)(C)C)CC2)c(C)c1 | 7.78%
Cc1nc2ccccc2nc1OCc1ccccc1 | 7.25%
CNC(=O)Nc1cccc(C(F)(F)F)c1 | 8.08%
CCN(CC)C(=O)c1c(NC(=O)c2ccccc2)sc(C)c1C | -5.68%
Cc1nc(SCC(=O)N2CCN(C(=O)c3ccco3)CC2)c2c(C)c(C)sc2n1 | -43.9%
S=c1[nH]nc(COc2ccccc2)n1/N=C/c1ccccc1Cl | 10.4%
CC(=O)c1ccc(OC(=O)N(C)c2ccccc2)cc1 | 10%
O=C(CSc1nnc(Cc2cc(=O)[nH]c(=O)[nH]2)n1-c1ccc(F)cc1)NC1CCCC1 | 7.42%
CCOC(=O)N1CCN(CC(O)COc2ccc3c(c2)CCC3)CC1.Cl (stereo not drawn) | 11.5%
COc1cccc(CN2CCN(C(=S)NCc3ccc(Cl)cc3)CC2)c1 | 9.94%
O=C(COC(=O)Cn1cnc2ccccc2c1=O)Nc1ccc(Cl)cc1 | -5.11%
COCCNc1nc(SCC(=O)N2CCN(c3ccccc3)CC2)nc2ccccc12 | -94.4%
Cc1c(C(=O)N(Cc2ccc(N(C)C)cc2)CC2CCCO2)oc2ccccc12 (stereo not drawn) | -1.65%
COc1ccc(-c2nnc(SCC(=O)N3CCN(c4ccccc4)CC3)o2)cc1OC | 9.13%
COc1ccc(NC(=S)NCc2ccc(F)cc2)c(OC)c1 | 13.5%
Cc1ccc(CN2CC(C(=O)Nc3ccc(S(=O)(=O)Nc4cc(C)nc(C)n4)cc3)CC2=O)cc1 (stereo not drawn) | 18.2%
O=C(O)c1cccc(N2C(=O)c3cccc4c(Cl)ccc(c34)C2=O)c1 | 11.1%
NNC(=O)c1ccc(-c2ccccc2F)cc1 | 14.8%

SMILES | hERG current change (%, negative = inhibition) at 1uM
COC1=C(Nc2ccc(O)cc2)C(=O)c2ccccc2C1=O | 2.55%
CCCS(=O)(=O)c1nc(C)cc(C)c1S(C)(=O)=O | 15.1%
CCn1c(=O)cc(OCC(=O)Nc2ccccc2C#N)c2ccccc21 | 7.97%
Cc1cc(C)cc(-n2ncc3c2CCCC3NC(=O)C2(C(N)=O)CC2)c1 (stereo not drawn) | 15.3%
Clc1ccc(-c2c(C3=NCCCN3)nnn2-c2ccc(Cl)cc2)cc1 | -10.2%
Nc1nc(NCCO)nc(NC2CCCCC2)c1[N+](=O)[O-] | 13.2%
S=C(Nc1ccc(Cl)c(Cl)c1)NC1CCCCC1 | -7.02%
CCC(Cc1ccccc1)NS(=O)(=O)c1ccc2c(c1)NC(=O)C(C)S2 (stereo not drawn) | 18.1%
CNC(=S)N(Cc1ccc(OC)cc1)C1CC(=O)N(c2ccc(Cl)cc2)C1=O (stereo not drawn) | -1.59%
O=[N+]([O-])c1ccc(Cl)c2c1C1C=CCC1C(c1ccccn1)N2 (stereo not drawn) | 15.1%
Cc1nc(C(=O)O)cc2c1[nH]c1ccccc12 | 2.19%
Br.C/C(=N\NC1=N[C@H]2CS(=O)(=O)C[C@H]2S1)c1ccccc1 | 11.4%
COC(=O)c1ccc(N/C(C)=C/C(=O)c2ccc(C)o2)cc1 | 7.96%
COc1ccc(C(C(=O)NC2CCCC2)N(CC2CCCO2)C(=O)Cn2nnc(-c3ccc(C)o3)n2)cc1 (stereo not drawn) | 2.52%
O=C(c1ccc2c(=O)n(Cc3ccco3)c(=S)[nH]c2c1)N1CCN(Cc2ccccc2)CC1 | 13.1%
Cc1cc(N2C(=O)C(O)=C(C(=O)c3ccc(C)o3)C2c2cccc(Oc3ccccc3)c2)no1 (stereo not drawn) | 17.4%
CCCCCCNC(=O)CCNC(=O)c1cc(OC)c(OC)c(OC)c1 | 4.93%
CC1CCN(Cc2c(C(=O)N/N=C/c3cccc(C(F)(F)F)c3)nnn2-c2nonc2N)CC1 | 13.9%
CSc1ccccc1NC(=O)CN(C)CC(=O)Nc1ccc(Cl)cc1F | 0.288%
C#Cc1cccc(NC(=O)C2CCN(C(C)=O)CC2)c1 | 9.75%
Cc1cc(S(=O)(=O)N2CCOCC2)ccc1OCC(=O)NCCCn1ccnc1 | 16.1%
CC[C@@H]1CC=C[C@H]2[C@H]1C(=O)N(Cc1ccccc1)[C@H]2c1ccc(C(F)(F)F)cc1 | 6.67%

SMILES | hERG current change (%, negative = inhibition) at 1uM
NC(=O)Nn1c(CCC(=O)O)ccc1-c1ccc(Cl)cc1 | 5.06%
Cc1cc(C)cc(NC(=O)CN(C)S(=O)(=O)c2cccc3nsnc23)c1 | 8.35%
COc1ccc(-c2nn(CCC#N)cc2/C=N/O)cc1OC | 6.57%
CC1=CC(C)C2(CO)COC(c3ccc(O)cc3)C1C2C (stereo not drawn) | 27.7%
Cc1ccc(-n2c(C)cc(C)c(C#N)c2=O)cc1C | 20.8%
Clc1cccc(CSc2ncn(-c3ccccc3)n2)c1 | -5.99%
CCN(c1nc(C)cc(OC)n1)S(=O)(=O)c1ccccc1 | -3.88%
CCOc1ccc(NC(=O)Cn2cc(C(=O)CC)c3ccccc32)cc1 | 15.3%
Cn1c(Cn2c(=O)sc3ccccc32)nnc1SCC(=O)NCc1ccc2c(c1)OCO2 | 2.81%
O=C(NCc1cccnc1)C(C(=O)c1ccc(F)cc1)n1ccccc1=O (stereo not drawn) | 4.16%
Cc1ccc(S(=O)(=O)N2CCC(=O)N(CCOCc3cccc(Cl)c3)CC2)cc1 | -11.5%
CCOc1ccc2nc(N3CCC(C(=O)N4CCN(C(=O)c5ccco5)CC4)CC3)sc2c1 | -89.3%
Nc1ccc(CN2CCOCC2)cc1 | 16%
CC(C)C[C@H]1COCCS(=O)(=O)N1Cc1ccccc1F | 4.88%
C=C(C)C1CC=C(C)/C(=N/NC(=O)COc2ccc(C)cc2)C1 (stereo not drawn) | 10.8%
N#C/C(=C\c1cn(CC(=O)N2CCCC2)c2ccccc12)C(=O)NCc1ccc2c(c1)OCO2 | -3.37%
CCC(=O)c1ccc(OCC(=O)Nc2cccc(S(=O)(=O)N(C)c3ccccc3)c2)cc1 | 5.86%
Cc1ccc(C2(c3ccc(C)cc3)NC(=O)N(CC(N)=O)C2=O)cc1 | 16.9%
CNC(=S)N/N=C(\C)c1ccc(-n2ccnc2)cc1 | 2.32%
Cc1ccccc1CSc1nnc(-c2ccccn2)n1N | 13.6%
COCCN(C(=O)c1c(C)noc1C)c1c(N)n(CC(C)C)c(=O)[nH]c1=O | 13.6%
Cc1cc(C(=O)COC(=O)c2ccc[nH]c2=O)c(C)n1CCc1ccc(F)cc1 | 14.3%

SMILES | hERG current change (%, negative = inhibition) at 1uM
Cn1c(=O)oc2cc(S(=O)(=O)NCc3ccc(Cl)cc3)ccc21 | 15.3%
CC1CCN(C(=O)CSc2nnc(-c3ccccc3F)o2)CC1 | 4.66%
CC(C)(C)NC(=O)c1ccc2c3c(cccc13)CC2 | -7.92%
Cc1cc(Nc2ccc(Cl)cc2)nc(N)n1 | 2.49%
COc1ccc(NC(=O)C2CCN(S(=O)(=O)c3ccc4c(c3)CC(C)N4C(C)=O)CC2)c(OC)c1 (stereo not drawn) | 8.18%
COC(=O)[C@H](C)NC(=O)NC1CCN(Cc2ccccc2)CC1 | 0.144%
COc1ccc(CNc2cc(C)nc3ncnn23)c(OC)c1 | -1.15%
Cc1c(NC(=O)/C=C/C(=O)O)cccc1[N+](=O)[O-] | 4.62%
CC(C)COc1ccc(C(=O)Nc2ccc([N+](=O)[O-])cc2)cc1 | 4.98%
FC(F)(F)c1ccc(Sc2nnc(-c3cccs3)n2CC2CCCO2)nc1 (stereo not drawn) | 6.68%
Cc1ccc2cc(CN(CCN(C)C)C(=O)Nc3ccc(Cl)cc3)c(=O)[nH]c2c1 | -20.7%
Fc1ccccc1-c1nc(-c2ccccc2)no1 | 7.54%
CCOC(=O)COc1cnc2ccccc2n1 | 7.8%
CCCCn1c(SCC(=O)Nc2cccc(OC)c2)nc2ccc(N3CCOCC3)cc2c1=O | 7.31%
NC(=O)CCN1CCN(Cc2cn[nH]c2-c2cccc3ccccc23)CC1 | 2.16%
Clc1ccc(CSc2cc3c(nn2)-c2ccccc2CC3)cc1 | 9.48%
Cc1cc(NC(=O)CSc2nc(-c3cccs3)nc3ccccc23)no1 | 12.5%
CC(C)C[C@H](NC(=O)c1nc[nH]c1C(=O)N[C@@H](CCCCNC(=O)OC(C)(C)C)C(=O)OC(C)(C)C)C(=O)OC(C)(C)C | 12.7%
Cc1ccc2nc(C(O)C(O)c3nc4ccc(C)cc4[nH]3)[nH]c2c1 (stereo not drawn) | -4.84%
CCN1C(=O)[C@@H]2[C@@H](c3ccc(-c4ccc(C(C)=O)cc4)c(OC)c3)N3CCC[C@@]3(C(=O)OC)[C@@H]2C1=O.O=C(O)C(F)(F)F | 2.93%
CCOC(=O)Cc1csc(NC(=O)CCCc2ccccc2)n1 | 14.8%
